Assay results published in the supplement of paper PMC9446081.
Among all 39,000 compounds or so, about 220 (0.56%) showed activity. The list shows a part of the results.

tested on: Escherichia coli K-12 BW25113; assay: relative growth (OD600 normalised to plate interquartile mean) (fraction); higher = less growth inhibition, active = 0.2 or less; conditions: 50 µM; LB; incubation time: overnight (16-24 h)
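Also: static incubation at 37 °C against the wild-type strain, values averaged over two biological replicates.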

**Q.** With `C[C@@H]1CN([C@@H](C)CO)S(=O)(=O)c2ccc(C3=CCCC3)cc2O[C@@H]1CN(C)C(=O)C1CCOCC1` as the molecule, how does the relative growth read?
**A.** inactive: 0.979

**Q.** How did the relative growth turn out when `C[C@H](CO)N1C[C@H](C)[C@H](CN(C)S(=O)(=O)c2ccccc2)Oc2c(NC(=O)C3CCOCC3)cccc2C1=O` was run?
**A.** inactive: 1

**Q.** How did the relative growth turn out when `COCC#Cc1cnc2c(c1)C(=O)N([C@H](C)CO)C[C@H](C)[C@H](CN(C)C(=O)CCN1CCCCC1)O2` was run?
**A.** inactive: 1

**Q.** With `C[C@@H]1CCCCO[C@@H](CN(C)Cc2ccc(C(=O)O)cc2)[C@@H](C)CN([C@@H](C)CO)C(=O)c2cc(NC(=O)C3CCCCC3)ccc2O1` as the molecule, how does the relative growth read?
**A.** inactive: 1

**Q.** Which relative growth does the source give for `COc1ccc(S(=O)(=O)Nc2ccc3c(c2)C(=O)N([C@H](C)CO)C[C@H](C)[C@@H](CN(C)S(C)(=O)=O)OCCCC[C@@H](C)O3)cc1` here?
**A.** inactive: 0.975

**Q.** Which relative growth does the source give for `COCC#Cc1ccc2c(c1)O[C@@H](CN(C)S(=O)(=O)c1cccc(F)c1)[C@H](C)CN([C@@H](C)CO)S2(=O)=O` here?
**A.** inactive: 1.01

**Q.** How did the relative growth turn out when `NNC(=O)[C@@H](O)c1ccccc1` was run?
**A.** inactive: 0.981

**Q.** For `O=C(O)c1c[nH]ccc1=O`, which relative growth is on record?
**A.** inactive: 1.02

**Q.** Which relative growth does the source give for `C[C@@H]1CN([C@@H](C)CO)C(=O)c2cccc(NC(=O)Nc3ccc4c(c3)OCO4)c2O[C@@H]1CN(C)Cc1ccc(Oc2ccccc2)cc1` here?
**A.** inactive: 1

**Q.** For `C[C@@H]1CCCCO[C@H](CN(C)C(=O)Nc2ccc(C(F)(F)F)cc2)[C@@H](C)CN([C@@H](C)CO)C(=O)c2cc(NC(=O)C3CCCCC3)ccc2O1`, which relative growth is on record?
**A.** inactive: 1.01

**Q.** `C=C(CO)C(=O)O[C@@H]1[C@H]2C(=C)C(=O)O[C@@H]2[C@H]2O[C@]2(C)CC/C=C(/C(=O)OC)[C@H]1OC(C)=O` was tested. Which relative growth did it give?
**A.** inactive: 1.01

**Q.** Which relative growth does the source give for `O=c1[nH]cc(/N=C/c2ccncc2)c(=O)[nH]1` here?
**A.** inactive: 0.98

**Q.** `O=C(C[C@@H]1C=C[C@@H](NC(=O)C2CC2)[C@@H](CO)O1)NCCCN1CCOCC1` was tested. Which relative growth did it give?
**A.** inactive: 0.973

**Q.** `C[C@H](CO)N1C[C@H](C)[C@@H](CN(C)Cc2ccc(C(F)(F)F)cc2)Oc2ccc(NC(=O)Nc3ccc(C(F)(F)F)cc3)cc2C1=O` was tested. Which relative growth did it give?
**A.** inactive: 1.01

**Q.** With `COc1ccc2c3c([nH]c2c1)[C@H](CO)N(C[C@]13CCN(CC1)C(=O)c1ccccc1F)C(=O)Nc1ccc(cc1)F` as the molecule, how does the relative growth read?
**A.** inactive: 1.02

**Q.** For `Cc1ccc(S(=O)(=O)N(C)C[C@H]2Oc3ccc(NC(=O)CCCN(C)C)cc3C(=O)N([C@H](C)CO)C[C@H]2C)cc1`, which relative growth is on record?
**A.** inactive: 0.989

**Q.** With `C[C@H]1CN([C@@H](C)CO)S(=O)(=O)c2ccc(C#CCN(C)C)cc2O[C@@H]1CN(C)C(=O)CN(C)C` as the molecule, how does the relative growth read?
**A.** inactive: 0.986
